Measured values reported in PubChem BioAssay AID588453 (National Center for Advancing Translational Sciences (NCATS), 2011).
Hit rate of the full screen: of about 390,000 compounds, about 4,000 (1%) were called active. This list was built around the results that the source calls inconclusive (neither active nor inactive); the mix of calls is not that of the screen. Calls follow the shape of the dose curve; as a rule, active = well fitted inhibition curve with a large enough effect; inconclusive = small, poorly fitted or top-dose-only effect; inactive = no such curve, though single readings can be large or run the other way. Potencies beside an inconclusive call are fits to weak or partial responses and may not hold up.

Each compound was assayed against Thioredoxin reductase 1, cytoplasmic (Rattus norvegicus) (UniProt O89049) (assay: qHTS Assay for Inhibitors of Mammalian Selenoprotein Thioredoxin Reductase 1 (TrxR1): qHTS). Conditions: recombinant rTrxR1, NADPH fluorescence consumption, selenite substrate; series mostly up to 114 µM; activity change, negative = inhibition: at the top concentration.
In short: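 Rat TrxR1 (90 nM in the dispensed reagent) was pre-reduced with 400 uM NADPH for 5 min at room temperature, then incubated with compound for 15 min. After 400 uM selenite was added, NADPH fluorescence (Ex 340/Em 450 nm) was followed for 8 min.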
% is scaled to controls: 0 for no effect and ±100 for the full control effect; potency is read from the fitted curve at half-maximal effect; tags tell the direction and shape of the fitted curve.
Also: nearly all actives have a fitted effect of over 65% in size.

Sequence of UniProt O89049 (O89049 whole entry, looked up): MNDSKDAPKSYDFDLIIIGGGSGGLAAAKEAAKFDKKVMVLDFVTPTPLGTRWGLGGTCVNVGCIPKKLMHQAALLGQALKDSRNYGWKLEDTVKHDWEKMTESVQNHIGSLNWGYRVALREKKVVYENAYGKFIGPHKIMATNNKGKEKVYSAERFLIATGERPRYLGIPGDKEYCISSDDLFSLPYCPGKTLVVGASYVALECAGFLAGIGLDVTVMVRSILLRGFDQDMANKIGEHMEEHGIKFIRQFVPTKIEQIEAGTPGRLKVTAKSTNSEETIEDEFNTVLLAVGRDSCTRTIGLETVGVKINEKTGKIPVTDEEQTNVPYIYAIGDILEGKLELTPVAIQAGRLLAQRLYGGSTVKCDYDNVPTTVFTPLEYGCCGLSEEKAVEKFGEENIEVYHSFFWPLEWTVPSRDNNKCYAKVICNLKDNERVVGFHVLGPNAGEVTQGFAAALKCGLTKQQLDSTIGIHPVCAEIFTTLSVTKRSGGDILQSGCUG

Which “activity change, negative = inhibition” value does the source give for `COc1ccccc1Oc1ccc2c(c1)C(=O)N(c1cccc(O)c1)C2=O` here?
The value was inactive: -14.9% [at 57.1 µM].

For `O=C(COc1cccc2ccccc12)Nc1cc(Cl)ccc1C(=O)O`, which “activity change, negative = inhibition” value is on record?
Its value is inactive: 14.3% [at 57.1 µM].

`CC1(C)c2ccccc2N2CCC(=O)NC21/C=C/c1ccco1` (stereo unspecified) was tested. Which Potency did it give?
The Potency was active: 39.8 µM.

With `Cc1oc(-c2ccccc2F)nc1CS(=O)CC(=O)NCc1ccc2c(c1)OCO2` (stereo unspecified) as the compound, how does the Potency read?
The Potency was inconclusive: 22.4 µM [inhibitor, single point].

How did the Potency turn out when `CC(NC(=O)/C=C/c1ccco1)c1nc2ccccc2n1Cc1c(Cl)cccc1Cl` (stereo unspecified) was run?
The Potency was inconclusive: 28.2 µM [inhibitor, single point].

For `CCN(c1ccccc1)S(=O)(=O)c1ccc(Cl)c(NC(=O)COC(=O)c2ccc(O)cc2)c1`, which “activity change, negative = inhibition” value is on record?
The value was inactive: -9.2%.

With `CCCCN(CC)C(=O)CCCn1c(=O)c2cccn2c2ccccc21` as the compound, how does the “activity change, negative = inhibition” value read?
Its value is inactive: 6.17%.

Which Potency does the source give for `Cc1ccc(N=C2NC(=O)/C(=C\c3ccco3)S2)cc1` here?
Its Potency is inconclusive: 44.7 µM [inhibitor, partial curve, poor fit].

For `Cc1ccc(/C=N/N2CCN(Cc3ccc(Cl)cc3)CC2)o1`, which Potency is on record?
The Potency was inconclusive: 28.2 µM [inhibitor, single point].

Which “activity change, negative = inhibition” value does the source give for `CC(C)c1ccc(-c2noc(C3CCCN(C(=O)c4ccc(F)cc4F)C3)n2)cc1` (stereo unspecified) here?
The value was inactive: 20.8%.

How did the “activity change, negative = inhibition” value turn out when `CCCCOc1ccc(C(=O)NCC(=O)NCC(=O)OCC)cc1` was run?
The value was inactive: -1.1%.

For `COc1cc(/C=C/C(=O)c2ccc(C)cc2)ccc1OCC#N`, which Potency is on record?
Its Potency is inconclusive: 56.2 µM [inhibitor, partial curve].

How did the “activity change, negative = inhibition” value turn out when `CCOc1ccc2c(c1)c(=O)c(S(=O)(=O)c1ccc(C)cc1)cn2Cc1ccccc1Cl` was run?
Its value is inactive: 6.46%.

With `Nc1cc(Cl)c(NC2=NCCN2)c(Cl)c1` as the compound, how does the Potency read?
The Potency was inconclusive: 33.6 µM [inhibitor, single point].

Which “activity change, negative = inhibition” value does the source give for `Cc1ccc2c(c1)nnn2C1CCN(S(=O)(=O)c2ccc(C(=O)N3C(C)CCCC3C)cc2)CC1` (stereo unspecified) here?
Its value is inactive: 9.36%.

How did the Potency turn out when `CC(=O)N(/N=C/c1ccc([N+](=O)[O-])o1)c1nc2ccccc2c(=O)n1-c1ccccc1` was run?
Its Potency is inconclusive: 20 µM [inhibitor, full curve].

With `Cc1ccc(S(=O)(=O)N(CC(=O)NCCC2=CCCCC2)Cc2ccccc2)cc1` as the compound, how does the “activity change, negative = inhibition” value read?
The value was inactive: 14%.

For `CC(C)(C)OC(=O)N1C=CCC1CN1C(=O)COCC1=O` (stereo unspecified), which “activity change, negative = inhibition” value is on record?
Its value is inactive: 13.1%.

Which Potency does the source give for `O=C(CNC(=O)c1ccccc1F)OCn1nnc2ccccc2c1=O` here?
The Potency was inconclusive: 89.1 µM [inhibitor, single point].

How did the Potency turn out when `CC(C)Cn1c(-c2ccco2)csc1=Nc1cccnc1` was run?
The Potency was inconclusive: 14.1 µM [inhibitor, full curve].

With `COc1ccc(-n2nc(C(=O)Nc3cc(C)ccn3)c3c4ccccc4n(C)c3c2=O)cc1Cl` as the compound, how does the “activity change, negative = inhibition” value read?
The value was inactive: 19%.

`CC1(C)Cc2c(cnn2-c2ccc(F)cc2)C(NC(=O)CCN2CCCC2=O)C1` (stereo unspecified) was tested. Which “activity change, negative = inhibition” value did it give?
Its value is inactive: -6.01%.

Which Potency does the source give for `S=c1[nH]nc(-c2ccccc2)n1/N=C/c1cccs1` here?
The Potency was inconclusive: 15.8 µM [inhibitor, partial curve, poor fit].

Which Potency does the source give for `Cc1cc(=O)oc2c(CN(C)Cc3ccccc3)c(O)ccc12` here?
The Potency was inconclusive: 70.8 µM [inhibitor, single point].

`Cc1ccc(S(=O)(=O)CCc2nnc(NC(=O)CCl)s2)cc1C` was tested. Which Potency did it give?
Its Potency is inconclusive: 20 µM [inhibitor, full curve].

For `COc1ccccc1CNc1ncnc2c1nnn2C`, which “activity change, negative = inhibition” value is on record?
Its value is inactive: 11.7% [at 57.1 µM].

For `CCCS(=O)(=O)c1ncc(Cl)c(C(=O)Nc2sc3c(c2C(=O)NCC)CCCC3)n1`, which Potency is on record?
Its Potency is inconclusive: 12.6 µM [inhibitor, full curve].

Which Potency does the source give for `Cc1ccc(NC(=O)CCS(=O)(=O)c2ccc3c(c2)oc(=O)n3C)c(Br)c1` here?
The Potency was inconclusive: 31.6 µM [inhibitor, partial curve, poor fit].

Which Potency does the source give for `CC(C#N)(NC(=O)COC(=O)c1ccccc1NCCO)C1CC1` (stereo unspecified) here?
The Potency was inconclusive: 25.1 µM [inhibitor, partial curve, poor fit].

With `O=C(Nc1ccc(C(F)(F)F)cc1)c1csc(-c2ccncc2)n1` as the compound, how does the activity change, negative = inhibition read?
Its activity change, negative = inhibition is inactive: 13.5% [at 11.4 µM].

For `Cc1nc(CNC(=O)CC2C(=O)NCCN2Cc2ccoc2)nc2c1CCCC2` (stereo unspecified), which Potency is on record?
The Potency was active: 50.1 µM.

For `COC(=O)c1ccc(CNC(=O)CNc2cc(C(F)(F)F)ccc2N2CCOCC2)cc1`, which Potency is on record?
Its Potency is inconclusive: 89.1 µM [inhibitor, single point].

For `CCn1c(=NC(=O)CCS(=O)(=O)c2ccccc2)sc2cccc(OC)c21`, which “activity change, negative = inhibition” value is on record?
The value was inactive: 13.1%.

For `O=C(Nc1cccc(-c2ccc(N3CCCCC3)nn2)c1)c1ccco1`, which Potency is on record?
Its Potency is inconclusive: 25.1 µM [inhibitor, single point].

`O=C(NC1CCCC1)C(c1ccncc1)N(Cc1ccccc1)C(=O)c1ccc(-c2ccccc2)[nH]1` (stereo unspecified) was tested. Which Potency did it give?
Its Potency is inconclusive: 44.7 µM [inhibitor, single point].

With `CN(C(=O)CC1C(=O)NCCN1Cc1ccc(F)c(F)c1)C1CCCCC1` (stereo unspecified) as the compound, how does the Potency read?
Its Potency is inconclusive: 39.8 µM [inhibitor, partial curve].

For `CCC(CC)n1[nH]c(=O)cc1N`, which Potency is on record?
Its Potency is inconclusive: 44.7 µM [inhibitor, partial curve, poor fit].

For `Cc1nn(-c2ccccc2)c2c1C(c1ccc([N+](=O)[O-])cc1)C(C#N)=C(N)O2` (stereo unspecified), which activity change, negative = inhibition is on record?
Its activity change, negative = inhibition is inactive: 11% [at 2.29 µM].

How did the “activity change, negative = inhibition” value turn out when `O=c1c2c(nc3cc(-c4cccc(Cl)c4)[nH]n13)CCC2` was run?
The value was inactive: -4.69% [at 57.1 µM].

For `S=C(c1ccc(-c2ccc(Br)cc2)o1)N1CCOCC1`, which “activity change, negative = inhibition” value is on record?
Its value is inactive: 13.2% [at 57.1 µM].

`N#C/C(=C(/O)Cc1ccccc1)P(=O)(c1ccccc1)c1ccccc1` was tested. Which Potency did it give?
The Potency was inconclusive: 44.7 µM [inhibitor, partial curve, poor fit].

With `CCSc1ccc([C@@H]2[C@H]3C(=O)N(CC)C(=O)[C@H]3[C@]3(C(=O)OC)CCCCN23)cc1OC` as the compound, how does the Potency read?
Its Potency is inconclusive: 28.2 µM [inhibitor, single point].

`O=C(NCc1ccncc1)c1ccc(Br)o1` was tested. Which Potency did it give?
The Potency was inconclusive: 20 µM [inhibitor, partial curve, poor fit].

Which “activity change, negative = inhibition” value does the source give for `O=C(O)c1cc(-c2ccc(Cl)s2)nc2ccccc12` here?
The value was inactive: 45.5%.

Which Potency does the source give for `CCN1C(=O)/C(=c2\sc3nc(=O)c(Cc4ccccc4)nn3c2=O)c2ccccc21` here?
The Potency was inconclusive: 10 µM [inhibitor, single point].

`CCN(C(=O)C1CCCN(c2ncnc3c2nc2n3CCCCC2)C1)c1cccc(Cl)c1` (stereo unspecified) was tested. Which Potency did it give?
Its Potency is “inactive”.
